Data published in PubChem BioAssay AID1240 (Sanford-Burnham Center for Chemical Genomics, 2008).
About 800 (1.6%) of roughly 50,000 compounds showed an effect of 50% or more. This is one part of the list.

Target: Bcl-2-like protein 10 (Homo sapiens) (UniProt Q9HD36)
Assay: Phenotype converters, Bcl-B/TR3 peptide binding displacement, primary biochemical FP (AID 1240);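 further: 0% = Bcl-B with tracer peptide and DMSO and 100% = tracer peptide lacking Bcl-B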
Details: GST-Bcl-B / FITC-TR3 peptide fluorescence polarization; stronger effect = higher value; compound at 3.75 mg/L

Sequence of UniProt Q9HD36 (Q9HD36 whole entry, looked up): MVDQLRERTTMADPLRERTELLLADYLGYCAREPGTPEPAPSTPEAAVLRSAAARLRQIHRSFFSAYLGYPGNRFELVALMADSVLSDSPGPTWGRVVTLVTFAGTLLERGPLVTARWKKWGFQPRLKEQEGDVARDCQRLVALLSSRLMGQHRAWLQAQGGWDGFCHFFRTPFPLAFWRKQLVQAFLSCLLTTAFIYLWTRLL

| Structure (SMILES) | displacement [%] |
| --- | --- |
| Cc1sc(NC(=O)c2cc(Cl)ccc2[N+](=O)[O-])nc1-c1ccccc1 | -7.7 |
| O=C1NC(=S)N/C1=C\c1ccc(-c2cccc([N+](=O)[O-])c2)o1 | 10.5 |
| CC1CC2(C)Oc3ccccc3C3OCC1(COC(=O)Nc1ccccc1)C(C)C32 (centres undefined) | 10 |
| CCOc1cccc(C(=O)Nc2scc(-c3ccc(F)cc3)c2C(=O)OC)c1 | -10.6 |
| C/C(CC(=O)NC12CC3CC(CC(C3)C1)C2)=N\NC(=O)c1ccc(-c2ccccc2)cc1 | -7.5 |
| CC(=O)Nc1cccc(Nc2nc3ccccc3nc2NS(=O)(=O)c2ccc(Cl)cc2)c1 | 12.2 |
| O=C1NC(=S)N/C1=C/c1ccc(Sc2ccccc2)o1 | -50 |
| CN(C)c1ccc(C(c2ccc(N(C)C)cc2)(c2ccc(N(C)C)cc2)C(F)(F)F)cc1 | -11.3 |
| CCOC(=O)c1ccccc1NC(=O)CN(c1ccccc1OC)S(=O)(=O)c1ccccc1 | 5 |
| COc1ccc(NC(=O)CSc2nc3ccccc3[nH]2)c(OC)c1 | 10.3 |
| CC(C)c1ccc(NC(=O)CN(c2ccc(Br)cc2)S(C)(=O)=O)cc1 | 2.2 |
| Clc1ccc(N2CCN(/N=C/c3ccc(Cl)cc3Cl)CC2)cc1 | -4.7 |
| CCOC(=O)c1c(NC(=O)c2ccccc2F)sc2c1CCCCC2 | 11.4 |
| O=C(Nc1cccc(Br)c1)Nc1ccc2nccnc2c1 | 9.4 |
| CCc1ccc2oc(-c3cccc(NC(=O)c4ccccc4I)c3)nc2c1 | -6.2 |
| COc1ccc(NC(=O)c2nn3c(c2Br)NC(c2cccs2)CC3C(F)(F)F)c(OC)c1 (centres undefined) | 3.9 |
| CCCn1c(SCc2nc3ccccc3[nH]2)nc2ccccc21 | 1.4 |
| Cc1ccc2nc(-c3ccc(O)cc3)sc2c1 | 12.7 |
| CCOc1ccc(NC(=O)c2c(NC(=O)c3ccc(C)cc3)sc3c2CCC3)cc1 | -0.8 |
| Cc1ccccc1CC(CC(=O)O)C(=O)O (centres undefined) | 10.6 |
| Cc1cc(NC(=O)C2CC3CCC2C3)no1 (centres undefined) | 6.8 |
| COC(=O)c1ccc(-n2ncnc2-c2ccc(OCc3ccccc3)c(OC)c2)cc1 | 5.3 |

| Structure (SMILES) | displacement [%] |
| --- | --- |
| COc1cc(C2Nc3ccccc3NC3=C2C(=O)CC(C)(C)C3)cc([N+](=O)[O-])c1O (centres undefined) | 8.2 |
| CCCC1=C(C(=O)OCC)C(c2ccc(OC)cc2OC)NC(=O)N1 (centres undefined) | -0.7 |
| CC1(C)CC(=O)C2=C(C1)OC(N)=C(C#N)C21CCCCC1 | 34.8 |
| Cc1cc(CN2CCOCC2)oc1C(=O)O | -14.9 |
| CCOC(=O)c1sc(NC(=O)/C=C/c2ccc3c(c2)OCO3)c(C(=O)OCC)c1C | 10.6 |
| O=C(NN1CCOCC1)c1sc2ccccc2c1Cl | 7.8 |
| O=C1NC(=Nc2ccccc2Cl)S/C1=C/c1cc(Br)cc(Cl)c1O | -59.8 |
| COc1cc(C(=O)N2CCN=C2c2ccccc2)cc(OC)c1OC | -3.1 |
| Cc1cccc(N2CCN(S(=O)(=O)c3ccccc3)CC2)c1 | -4.2 |
| COc1ccc(CN2CCN(C(=O)c3ccccc3OC)CC2)cc1OCc1ccccc1 | -12.7 |
| CCOc1ccc(C(=O)Nc2cc3nn(-c4ccc(C)cc4)nc3cc2C)cc1 | 3.8 |
| Cc1onc(-c2c(F)cccc2Cl)c1C(=O)NCC1COc2ccccc2O1 (centres undefined) | -6.5 |
| CCCN(C=O)/N=C/c1ccc(Cl)cc1 | 3 |
| COc1ccc(C(=O)Nc2sc3c(c2C(N)=O)CCCCCC3)cc1OC | -3.4 |
| CCOC(=O)c1c(NC(=O)c2ccc(S(=O)(=O)N3CCOCC3)cc2)sc(C)c1C | 2.5 |
| CCN(CC)c1ccc(/C=N/NC(=O)Cn2nnc(-c3ccccc3)n2)c(O)c1 | -12.8 |
| COC(=O)c1ccccc1P(C)(C)=O | 1 |
| Clc1ccc(-c2nc(N3CCOCC3)c3ccccc3n2)c(Cl)c1 | 18.4 |
| CN(C)c1ccc(/C=N/NC(=O)c2cc(=O)[nH]c3ccccc23)cc1 | -1.7 |
| O=C(Nc1c[nH]c(=O)[nH]c1=O)c1ccc2c(c1)C(=O)N(c1ccc([N+](=O)[O-])cc1)C2=O | -3.2 |
| CCOc1ccc(C(=O)Nc2cccc(S(N)(=O)=O)c2)cc1Br | -1.1 |
| O=C(Nc1ccc(F)cc1)Nc1ccc(I)cc1 | 4.2 |

| Structure (SMILES) | displacement [%] |
| --- | --- |
| CCOC(=O)C1=C(C)N=c2s/c(=C\c3ccc(C)o3)c(=O)n2C1c1ccc(SC)cc1 (centres undefined) | 65.3 |
| O=C1c2cc3ccccc3cc2C(=O)N1c1ccc(O)cc1 | 0.2 |
| O=C(COc1ccccc1[N+](=O)[O-])N/N=C/c1cc(O)c(Br)cc1Br | 3.1 |
| O=C(Nc1cccc(C(F)(F)F)c1)C1C2CC/C=C\CCC21 (centres undefined) | -0.9 |
| CC1=C(C(=O)OCC2CCCO2)C(c2ccccc2Br)NC(=O)N1 (centres undefined) | 5.9 |
| N#C/C(=C/c1cc(Cl)c(O)c(Cl)c1)C(=O)Nc1cccc(Br)c1 | -28.2 |
| CCOc1ccc(Cl)cc1/C=C1/SC(=S)N(C)C1=O | 0.7 |
| CSCCC(C(=O)O)N1C(=O)/C(=C/c2ccccc2Cl)SC1=S (centres undefined) | 9.3 |
| Oc1ccc(-c2cc(-c3ccc(O)cc3)nc(-c3ccccc3)n2)cc1 | -1.5 |
| COc1ccc(C2=N/C(=C/c3ccc([N+](=O)[O-])cc3)C(=O)N2c2ccc(F)cc2)cc1 | 10 |
| O=C(CCN1C(=O)c2ccccc2C1=O)N1CCN(Cc2ccc(Cl)cc2)CC1 | -15.4 |
| Cc1ccc(OCCCN2CCN(C)CC2)c(C(C)(C)C)c1 | -8 |
| Nc1cccc(C(=O)/C=C/c2ccc(Cl)cc2Cl)c1 | 1 |
| O=C(NCCc1ccccc1)c1nn2c(C(F)(F)F)cc(-c3ccccc3)nc2c1Br | 0.8 |
| CC(C)(C)c1ccc(OCC(O)CS(=O)(=O)Cc2ccc(Cl)cc2)cc1 (centres undefined) | 8.5 |
| Cc1cc(N2CCOCC2)nc(N2CCOCC2)n1 | 15.9 |
| CC(C)N(Cc1ccccc1)C(=O)CN1C(=O)c2ccccc2C1=O | 11.1 |
| COc1ccc(CC(=O)Nc2ccc(C)c(C)c2)cc1OC | 1.4 |
| O=[N+]([O-])c1cc(Cl)ccc1NCCCNS(=O)(=O)c1ccccc1 | 6.9 |
| COc1ccccc1N1CCN(C(=O)COc2ccc(C)cc2Br)CC1 | 6.1 |
| Cc1ccc2[nH]c(O)c(N=Nc3ccc([N+](=O)[O-])cc3[N+](=O)[O-])c2c1Br | 1.4 |
| Cc1cc2c(cc1C)N(C(=O)CSc1nccn1C)C(C)(C)c1ssc(=S)c1-2 | 13.1 |

| Structure (SMILES) | displacement [%] |
| --- | --- |
| Cc1cc(C)n2c(SCCc3ccccc3)nnc2n1 | -17.7 |
| COc1cccc(OC)c1OCCOCCOc1ncnc2ccccc12 | -12.7 |
| CCc1ccccc1NC(=O)/C(C#N)=C/c1cn(CC(=O)Nc2ccccc2)c2ccccc12 | -26.1 |
| O=C(Nc1ccc2ccccc2c1)c1ccccc1C(F)(F)F | -2 |
| Cc1cc(C=O)c(C)n1-c1ccc2ccccc2c1 | 7.4 |
| COCCCNC(=O)C(=O)Nc1ccc(OC)c(Cl)c1 | 13.1 |
| COc1ccc(/C=C(\C#N)c2nc(-c3ccc(C)cc3)cs2)cc1 | 4.5 |
| COC(=O)C1=C(C)N=c2s/c(=C\c3ccccc3Cl)c(=O)n2C1c1cccs1 (centres undefined) | 84.9 |
| N#C/C(=C\c1ccc(-c2ccc(C(=O)O)cc2)o1)C(=O)NCc1ccco1 | -27.8 |
| O=C1CCCC2=C1C(c1ccc(Cl)cc1Cl)Nc1ccccc1N2 (centres undefined) | -3.3 |
| CCCOC(=O)c1c(NC(=O)/C=C/C(=O)O)sc2c1CCCC2 | -9.1 |
| C=CCN1C(=O)/C(=C\c2ccc(-c3cccc(C(=O)O)c3)o2)C(=O)NC1=S | -50.7 |
| COc1ccc(C=NNC(=O)Cn2nnc3ccccc32)c(OC)c1 | -1.3 |
| CC(=O)Nc1cccc(NC(=O)c2ccc(C)cc2)c1 | 3.2 |
| COC(=O)C1=C(C)NC2=C(C(=O)CCC2)C1c1ccc2c(c1)OCO2 (centres undefined) | 10.5 |
| O=C1C(=Cc2ccc(I)o2)C(=O)c2ccccc21 | 37.1 |
| COc1ccccc1CNC(=O)c1ccc(F)cc1 | -4.4 |
| COCCCNC(=O)/C(=C/c1ccc(-c2ccc(Br)cc2)o1)NC(=O)c1ccccc1 | -6.6 |
| COc1ccc(OC)c(CNCc2ccc3c(c2)OCO3)c1 | -0.1 |
| COc1ccc(C=O)cc1OCc1ccccc1 | 13.9 |
| Cc1cccc(OCC(=O)O/N=C(\N)Cc2ccc([N+](=O)[O-])cc2)c1 | 1.8 |
| Cn1c(SCC(=O)Nc2cccc([N+](=O)[O-])c2)nc2ccccc21 | -1.5 |

| Structure (SMILES) | displacement [%] |
| --- | --- |
| O=C(NN1C(=O)C2CCCCC2C1=O)c1ccc(O)cc1 (centres undefined) | -3.6 |
| C=CCNC(=S)Nc1ccccc1NC(=S)NCC=C | -6.5 |
| O=C(COc1ccc(Cl)cc1)NCc1ccccn1 | 5.1 |
| CCOC(=O)c1ccc(NC(=O)c2cccc([N+](=O)[O-])c2C)cc1 | 10.1 |
| Cc1ccc(S(=O)(=O)N(Cc2ccccc2)c2ccccc2C(=O)NCC(C)C)cc1 | -0.2 |
| Cc1nc2cc(-c3cccc(Cl)c3)[nH]n2c(=O)c1Cl | -0.7 |
| COc1cc2cc(=O)n(Cc3ccccc3)c(C)c2cc1OC | 28.3 |
| CC(C)(C)c1ccc(S(=O)(=O)N2CCCC2C(=O)O)cc1 (centres undefined) | -0.9 |
| COc1ccc(CCNC(=O)CCc2ccccc2)cc1OC | 3.8 |
| COc1ccc(NC(=O)c2ccc(CN3CCN(Cc4ccccc4)CC3)cc2)cc1 | -1.5 |
| O=C1Oc2ccccc2C(=O)/C1=C/c1ccccc1O | 4.4 |
| COC(=O)C1=C(C)N=c2s/c(=C\c3cccc([N+](=O)[O-])c3)c(=O)n2C1c1ccc(OC)cc1 (centres undefined) | 1.2 |
| COc1ccc(OC)c(N(CC(=O)NCC(C)C)S(C)(=O)=O)c1 | 6.4 |
| O=C(c1cc2ccccc2oc1=O)N1CCSC1c1ccc(Br)cc1 (centres undefined) | 10.5 |
| COc1ccc(N(CC(=O)Nc2cccc(Br)c2)S(C)(=O)=O)cc1Cl | -0.1 |
| CCOc1ccc(N2C(=O)/C(=C/c3ccc(C(C)C)cc3)C(=O)NC2=S)cc1 | -7.8 |
| COc1ccc(C(=O)Nc2ccccc2)cc1NC(=O)c1cccc(F)c1 | 8.7 |
| CC(SC12CC3CC(CC(C3)C1)C2)C(=O)O (centres undefined) | 13.9 |
| CC1CCc2c(sc(NC(=O)c3cccnc3)c2C#N)C1 (centres undefined) | -3 |
| COc1ccc(S(=O)(=O)N2CCN(S(=O)(=O)c3ccccc3)CC2)cc1 | -6.1 |
| COC(=O)CN1C(=O)/C(=C/c2cc(OC)ccc2OC)SC1=S | -14.6 |
